± gives the standard deviation of the averaged measurements. This is one part of the list.
System: PfAP2-G AP2 domain (GST-tagged)
Assay: gcPBM binding intensity (ln(normalized median fluorescence intensity)); higher = stronger DNA binding
In short: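 GST-tagged P. falciparum DNA-binding domains, expressed in E. coli (about 25 μg on average), were applied for 1 h to an Agilent 4 × 180k array of primer-extended double-stranded 36-bp intergenic genomic probes plus negative controls. The binding buffer was 1× PBS with 1% milk, 0.2 mg/ml BSA, 0.5% salmon testes DNA and 0.03% Triton X-100. Bound protein was detected with Alexa488 anti-GST antibody and scanned at 488 nm. Binding intensity is the highest Masliner-normalised natural-log median intensity across replicate spots of either probe orientation.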

| Sequence | gcPBM binding intensity (ln) |
| --- | --- |
| TTTTTTTTATTATAAATATATATATTATAAAACGAA [XGTACX_negctrl_site189] | 10.1 ± 0.38 |
| AGTATTATTTACTGCGCATGCTATTTATATATATTA [TGCATGCA_site876] | 9.8 ± 0.042 |
| AATAGAAATTATATAAACATAAATGAATAAATAAAT [CACACA_negctrl_site1817] | 9.54 ± 0.16 |
| ACCATATATTAAAAAGTGCATTAAATATATAAATAT [GTGCAC_site9443] | 10 ± 0.11 |
| AAAAAAAAAAAAAAAGCACACATCATATTTTAATTC [CACACA_site9109] | 10.16 ± 0.092 |
| ACACAAAAATGAAAAATGAAAAGGGTAATATATATA [CACACA_negctrl_site1490] | 9.85 ± 0.16 |
| ATTTTATTTAAATACACACACATATATATATTATAT [CACACA_site4607] | 10.1 ± 0.2 |
| CACAGACACCCATACACACACATACCCATATATATA [CACACA_site5023] | 10.4 ± 0.26 |
| CTACATATGTATAATATGCACACGTCATTTTCCCCT [CACACA_site2107] | 10.2 ± 0.099 |
| AATTATCAGGAATGATGTACTGAAATAAAAAAAAAA [XGTACX_site3280] | 11 ± 0.71 |
| ATACTGTATAGTCGCACACAAAAATATAAAATATTT [CACACA_site6004] | 10.4 ± 0.37 |
| TTACACAAGGATAAAAACATATGTATGATTATATAT [CACACA_negctrl_site654] | 9.85 ± 0.23 |
| AAAATTTGAAAAAGGGGTACTTAATAAAAGTTTCAT [XGTACX_site932] | 11.3 ± 0.89 |
| TAATAAATCAAATGCACACACACAAAAAAAAAAAAA [CACACA_site161] | 10 ± 0.49 |
| TTTTTATTTTTTTATGCATGTGATGAAACGTGCCTA [TGCATGCA_site141] | 9.93 |
| AAACAAATAAAAATATGTACACATTTTTTCATTATG [XGTACX_site5449] | 11.4 ± 0.68 |
| AAAATATTAAATATGTGTACATATAATAGTTCAATG [XGTACX_site5957] | 11.3 ± 0.91 |
| TTAAAAGAAAATAGGTGTACACATAATATATACATA [XGTACX_site7697] | 11.8 ± 1 |
| TTTTTAATCATAATATGTACATATAAAAATGGTTTG [XGTACX_site3996] | 11.1 ± 0.67 |

| Sequence | gcPBM binding intensity (ln) |
| --- | --- |
| AATATGTCTTAAAAAAGTACATAAATTTTAACTTCA [XGTACX_site6670] | 11.4 ± 1 |
| AACAATTAGAATAACGCATGCATTTATAATATAGAA [TGCATGCA_site595] | 9.72 ± 0.28 |
| TGTGTATATATAAATACACACCAAATGTTAATATAT [CACACA_site8501] | 10.025 ± 0.007 |
| ATAATTAACAAATACACACACACACCCAGACAAAAA [CACACA_site4445] | 10.4 ± 0.52 |
| ACTTTTTGAATGTTTGCACACAAATCTCATAATTTT [CACACA_site358] | 10.2 ± 0.16 |
| ACATAGATCATAGGTTGTACGAAGGTATCCTTTATT [XGTACX_site694] | 10.8 ± 0.45 |
| TCATATATATATATATGTACATATTTATGTATGTAT [XGTACX_site6291] | 11.1 ± 0.66 |
| CATACCTATAGACACACACACACACGCACGCACAAA [CACACA_site6374] | 10.4 ± 0.34 |
| TTTTGTAATGCTTTTTTTTTTTTTTTTTTTTTTTTT [CACACA_negctrl_site932] | 11 ± 0.57 |
| AAAAGGAGCAAATACAAAAAAATGAACAAAAAAAAA [CACACA_negctrl_site716] | 9.96 ± 0.042 |
| TTTTTCTTTGAATAAATACACACGAGAAATGAAAGT [CACACA_site1688] | 10.6 ± 0.44 |
| ATATAATGAAGTGAATGTACATATAAAATGTAAAAA [XGTACX_site8052] | 11.1 ± 0.43 |
| TTTTTATAAATAATAAGGCGTATGAAAATAAAATAA [TGCATGCA_negctrl_site421] | 10.4 ± 0.33 |
| TCAAAATATCCAAAAGAATAAAGAAAAAAAAAAAGA [CACACA_negctrl_site1377] | 9.65 ± 0.26 |
| ATATAACATTGTTTTGCATGTAAATATTCAATTTTT [TGCATGCA_site758] | 9.84 ± 0.099 |
| TCAAATTTAATCATAACACACATTCACATATGAATT [CACACA_site3199] | 9.7 ± 0.028 |
| ATTGTATAAAAATGTACATGCAATAAATTTAGTTCT [TGCATGCA_site675] | 11.1 ± 0.63 |
| TAAAGCAACTGAAACACACAAATTTTTTTTTTTTTT [CACACA_site7499] | 9.645 ± 0.064 |
| AAACTGAAAAAAATATGTACATATTTATATCTTATA [XGTACX_site3011] | 11.4 ± 0.88 |

| Sequence | gcPBM binding intensity (ln) |
| --- | --- |
| AAAAAAAAAAAACACACACACAAATACAAATACATA [CACACA_site415] | 9.97 ± 0.33 |
| GAAACGTTTTTTCAGTGTACATTTTACCGATTTGTA [XGTACX_site8249] | 11.2 ± 0.7 |
| TAGTATAATATATATTGTACGTTTTAATTGTTTATA [XGTACX_site2731] | 11 ± 0.79 |
| GAGTTTATATTTTAAGCATGCATATGTTATTATTAT [TGCATGCA_site1049] | 9.83 ± 0.085 |
| TATATCAAAAACGAGACATGCATGCCGTTCATTTTG [TGCATGCA_site211] | 9.52 ± 0.42 |
| ATTGTTTCATTAAAATGTACATAAATTGTGTATAAT [XGTACX_site5341] | 11.2 ± 0.7 |
| TTATTAACGGAACTCTGTACTTAAAAAATTTTAGAA [XGTACX_site8787] | 11.3 ± 0.99 |
| TATATAAGAATATATACACACATATCTGTATTTATA [CACACA_site5231] | 9.79 |
| AAAAAAACAGAAAACACACAAATTATCTTATAATTA [CACACA_site6282] | 9.63 ± 0.11 |
| TTTATAAAGGGAAAGGTGCAAAAGGTGAAAGTTTTA | 9.95 ± 0.11 |
| TATTTTTCTTTTTAAGTGCATGGTTGTATAAAATTT [GTGCAC_site9480] | 10.3 ± 0.14 |
| TATATATATATTTAATGTACATGTTTATTTTATCAT [XGTACX_site499] | 11.1 ± 0.5 |
| AATAAAATAAAAAAAAATAAAAAAAAAATAAAAAAT [XGTACX_negctrl_site245] | 9.37 ± 0.11 |
| TCTTTTTTGAAGCATTTTGTTTTTTAATAAGTAAAA [TGCATGCA_negctrl_site247] | 9.92 ± 0.2 |
| ATATATATTATATATGCATGCCAAATCTTTATAAAC [TGCATGCA_site1042] | 9.97 ± 0.071 |
| ACAAAAAAATATTTATGTACTTATTATATTTATAAT [XGTACX_site2059] | 11.4 ± 0.93 |
| CTTTTTACTTAATACACACACACACTAAAAAAAAAA [CACACA_site6574] | 10.5 ± 0.53 |
| AAAACTAAATGTTATTCGCACACGGAATTTATTTAA [CACACA_site9221] | 9.955 ± 0.007 |

Source: the supplement of paper PMC11417369
